For experiment [1], the target named is T1, 3xFLAG-NEK1 1-1,160 (human) (UniProt Q96PY6).
T1 sequence: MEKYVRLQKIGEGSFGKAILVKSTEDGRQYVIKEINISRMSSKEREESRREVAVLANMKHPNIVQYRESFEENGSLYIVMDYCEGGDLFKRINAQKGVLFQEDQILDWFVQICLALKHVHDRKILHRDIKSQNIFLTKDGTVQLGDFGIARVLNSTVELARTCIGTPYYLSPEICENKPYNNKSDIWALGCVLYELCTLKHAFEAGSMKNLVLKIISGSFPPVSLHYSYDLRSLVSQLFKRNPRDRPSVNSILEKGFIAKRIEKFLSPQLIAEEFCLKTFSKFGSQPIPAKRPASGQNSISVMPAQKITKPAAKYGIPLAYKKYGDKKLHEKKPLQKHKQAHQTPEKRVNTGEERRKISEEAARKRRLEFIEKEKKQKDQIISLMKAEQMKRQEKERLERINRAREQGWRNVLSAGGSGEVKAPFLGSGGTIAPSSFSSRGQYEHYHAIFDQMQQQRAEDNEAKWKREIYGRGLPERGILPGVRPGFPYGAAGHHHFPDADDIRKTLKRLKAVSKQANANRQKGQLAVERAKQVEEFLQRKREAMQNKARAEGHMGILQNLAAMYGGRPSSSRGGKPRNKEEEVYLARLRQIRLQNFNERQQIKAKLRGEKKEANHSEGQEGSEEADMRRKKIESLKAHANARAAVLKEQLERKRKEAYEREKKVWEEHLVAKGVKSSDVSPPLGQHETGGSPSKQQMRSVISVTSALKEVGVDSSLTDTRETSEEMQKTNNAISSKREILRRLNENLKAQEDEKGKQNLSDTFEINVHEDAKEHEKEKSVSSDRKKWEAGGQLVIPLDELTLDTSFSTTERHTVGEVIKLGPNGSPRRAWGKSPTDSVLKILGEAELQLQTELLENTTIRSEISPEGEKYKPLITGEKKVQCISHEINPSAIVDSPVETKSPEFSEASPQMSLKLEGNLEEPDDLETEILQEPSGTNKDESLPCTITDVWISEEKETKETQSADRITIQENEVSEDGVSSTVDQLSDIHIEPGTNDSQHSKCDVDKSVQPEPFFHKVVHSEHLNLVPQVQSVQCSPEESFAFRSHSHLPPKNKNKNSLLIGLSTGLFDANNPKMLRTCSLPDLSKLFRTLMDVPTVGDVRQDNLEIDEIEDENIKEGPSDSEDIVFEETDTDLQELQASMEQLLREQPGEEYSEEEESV
The experiment can be described thus: co-IP; ARPE-19 transiently co-transfected with tagged C21ORF2 (GFP or 3xHA) and 3xFLAG-NEK1 (full length, truncated or mutated); immunoprecipitation with anti-FLAG antibodies; washes with 500 mM NaCl, 1% Triton X-100; immunoblotting. A general note: Immunoblotting shows a protein as a band on a membrane.

Experiment [2] has as its target T2, 3xFLAG-NEK1 760-1,286 (human) (UniProt Q96PY6).
T2 sequence: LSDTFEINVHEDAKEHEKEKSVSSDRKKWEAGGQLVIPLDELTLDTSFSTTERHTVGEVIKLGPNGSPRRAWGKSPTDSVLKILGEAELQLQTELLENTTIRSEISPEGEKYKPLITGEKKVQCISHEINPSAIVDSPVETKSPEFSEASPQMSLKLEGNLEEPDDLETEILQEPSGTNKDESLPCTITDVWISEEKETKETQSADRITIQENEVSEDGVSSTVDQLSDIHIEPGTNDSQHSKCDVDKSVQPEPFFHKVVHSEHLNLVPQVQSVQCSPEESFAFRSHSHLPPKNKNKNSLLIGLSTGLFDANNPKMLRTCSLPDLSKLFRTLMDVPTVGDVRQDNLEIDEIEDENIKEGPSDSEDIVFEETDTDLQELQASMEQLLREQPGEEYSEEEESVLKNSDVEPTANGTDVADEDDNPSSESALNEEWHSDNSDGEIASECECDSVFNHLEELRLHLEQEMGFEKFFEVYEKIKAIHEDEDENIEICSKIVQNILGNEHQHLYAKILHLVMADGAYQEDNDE
The experiment is described as above.

These are yes or no findings as the source states them, for the method shown. In cells and extracts the contact can be indirect. Some binding calls cover weakened binding; strength is not graded here. Sequences can lack the tags named with a protein.

B1: GFP-C21ORF2 (protein, UniProt O43822-1 1-256)
chain: MKLTRKMVLTRAKASELHSVRKLNCWGSRLTDISICQEMPSLEVITLSVNSISTLEPVSRCQRLSELYLRRNRIPSLAELFYLKGLPRLRVLWLAENPCCGTSPHRYRMTVLRTLPRLQKLDNQAVTEEELSRALSEGEEITAAPEREGTGHGGPKLCCTLSSLSSAAETGRDPLDSEEEATSGAQDERGLKPPSRGQFPSLSARDASSSHRGRNVLTAILLLLRELDAEGLEAVQQTVGSRLQALRGEEVQEHAE
Take B1: the binding entry is listed as “no binding” in experiment [1] and “binds” in experiment [2].

For the origin of these results see PMC10185812.
